Test results published in the supplement of paper PMC3334620.
Whole data set: some 33,000 sequences, median “E-score (-0.5 to 0.5)” near -0.04, cut for the highest 2% near 0.36. Some of the results follow.

Biological target: T1, Hmlalpha2 (UniProt P0CY09)
T1 sequence: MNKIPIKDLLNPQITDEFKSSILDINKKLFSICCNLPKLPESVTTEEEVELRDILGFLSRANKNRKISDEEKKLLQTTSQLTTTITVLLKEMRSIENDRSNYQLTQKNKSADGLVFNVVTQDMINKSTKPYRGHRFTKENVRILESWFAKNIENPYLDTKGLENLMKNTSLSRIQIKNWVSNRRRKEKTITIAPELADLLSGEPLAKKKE
Experiment: PBM E-score (8-mer binding enrichment) (E-score (-0.5 to 0.5)); higher = stronger / more preferred TF binding; most listed sequences are background and not binding sites
Details: protein concentration: 200 nM; construct: GST-full length
Procedure, shortened: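 Bound GST-tagged yeast transcription factors, applied at about 100-200 nM to double-stranded universal all-10-mer Agilent arrays, were detected with fluorescent anti-GST. Scans were normalised with masliner. A modified Wilcoxon-Mann-Whitney statistic, the E-score, was assigned to each ungapped eight-base word pooled with its reverse complement by the Universal PBM Analysis Suite.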

Sequence	PBM E-score
AGATGGAA	-0.0848
ACGTAGGG	-0.184
GCTTCGAC	-0.0494
ATAGGCTG	-0.0654
ACTATGTC	0.165
AGCCTTGC	-0.299
AGTCAGGG	-0.16
CCTGAGGA	-0.172
CAAGTGGA	-0.152
AAACTTTA	0.193
CGTACTAC	0.168
AATCTGGT	-0.0491
CACAACAA	0.233
AGCCGGAT	-0.228
GAAACTTA	0.163
CGTAGAAA	0.31
AGATTCAT	-0.0303
AGGAAGCA	-0.161
AGTTTTTA	0.243
TGAACCCA	-0.0905
CAGTCGCC	-0.418
AATAGGTG	-0.147
ACCCCTAC	-0.158
CTTGGACA	-0.198

Sequence	PBM E-score
AAAAACAT	0.297
CTTACACC	0.0787
AGCCCTAT	-0.198
GCTCAGCA	0.0776
TAGTCCGA	-0.111
GACCAAAC	-0.11
AAGTATTA	0.163
ACACCCGC	0.141
AGAGGAGC	-0.15
AACAGTTA	-0.0642
CCGCGAAC	-0.26
AATCCATG	0.0986
ACGCGCCG	0.0827
AAATTCAT	0.171
ATCGTCCG	-0.0155
CACCCGTA	-0.162
ACTTCATG	-0.0582
ACAGCCAC	-0.0654
CACCCTGG	-0.193
CCTCATGC	-0.294
AGGGCACT	-0.306
GAGGGAAA	-0.225
GCTACGCC	-0.226
CTCCCATA	-0.223

Sequence	PBM E-score
ATCTCTTG	-0.19
ATTGCAGA	0.07
CCGTAACC	-0.148
CCCAGACG	-0.234
ACTCTGAG	-0.078
CCCCTTTA	-0.0823
ACCATGGT	-0.0519
CGGTCGTC	-0.261
CACGGGAA	-0.00621
ATACTCTC	0.0862
CCCCCACC	-0.38
GAGAACCA	-0.0127
ATACCCCC	-0.311
CGGGAAAC	0.0207
AGGCTCAG	-0.0848
CCTAGGTA	-0.0267
GGCGGAAA	-0.136
CAAGTGAA	0.0541
TGAACGAA	-0.0603
ATACACCC	0.112
TAGAACGA	0.141
ACTCACCC	-0.232
ACTCCGCC	-0.252
AGGTTCGC	-0.226

Sequence	PBM E-score
AATATGTA	0.386
ACGACAGG	0.0531
AGCGTTGC	-0.0149
AAGAGAAG	0.0484
AGTCAGAG	-0.19
TAATCGCA	0.251
AGTGTTGC	0.169
CAACGGCG	-0.191
TAATTAAA	0.234
GGAGTCCA	0.00097
CATCCCTC	-0.257
ATCATTGG	0.0413
TAAATGCA	0.157
AGGTTCCA	-0.15
CCTCCAGA	-0.202
AATGCGGT	-0.186
AGGCAGAT	-0.103
ACTCGGGG	-0.134
ACATCGCT	0.166
CGGCAAAC	-0.0643
GGACTGTA	0.0258
AAAGTGTT	0.249
